Test results published in PMC10866072, “Design, synthesis, molecular modelling and biological evaluation of novel 6-amino-5-cyano-2-thiopyrimidine derivatives as potent anticancer agents against leukemia and apoptotic inducers” (Journal of Enzyme Inhibition and Medicinal Chemistry, 2024).

Tested on: NCI-H322M
Assay type: cell-based
Conditions: Homo sapiens, five-dose

Molecule	GI50
N#Cc1c(N)nc(S)nc1-c1ccc(Cl)cc1Cl [Compound 1c, 4-Amino-6–(2,4-dichlorophenyl)-2-mercaptopyrimidine-5-carbonitrile]	18.1 µM

Same assay, conditions: Homo sapiens, five-dose, read-out: LC50 (the source's name)

Molecule	CC50
N#Cc1c(N)nc(S)nc1-c1ccc(Cl)cc1Cl [Compound 1c, 4-Amino-6–(2,4-dichlorophenyl)-2-mercaptopyrimidine-5-carbonitrile]	81.3 µM

Same assay, conditions: Homo sapiens, one dose 10^-5 M, 48 h, read-out: % growth

Molecule	activity at 10 µM
CN(C)c1ccc(-c2nc(S)nc(N)c2C#N)cc1 [Compound 1a]	101%
N#Cc1c(N)nc(S)nc1-c1ccc(Cl)cc1 [Compound 1b]	76.1%
N#Cc1c(N)nc(S)nc1-c1ccc(Cl)cc1Cl [Compound 1c, 4-Amino-6–(2,4-dichlorophenyl)-2-mercaptopyrimidine-5-carbonitrile]	96.5%
CN(C)c1ccc(-c2nc(S)nc(N)c2C(=N)NN=Cc2ccccc2)cc1 [Compound 4a, 4-Amino-6-[4-(dimethylamino)phenyl]-2-mercapto-N'-[phenylmethylene] pyrimidine-5-carboximidohydrazide]	99.2%
CN(C)c1ccc(-c2nc(S)nc(N)c2C(=N)NN=Cc2ccc(Cl)cc2)cc1 [Compound 4b, 4-amino-N'-[(4-chlorophenyl)methylene]-6-[4-(dimethylamino)phenyl]-2-mercapto pyrimidine-5-carboximidohydrazide]	98.5%
COc1ccc(/C=N\NC(=N)c2c(N)nc(S)nc2-c2ccc(N(C)C)cc2)cc1 [Compound 4d, 4-amino-N'-[(1Z)-(4-methoxyphenyl)methylene]-6-[4-(dimethylamino)phenyl]-2-mercapto pyrimidine-5-carboximidohydrazide]	95.7%
CN(C)c1ccc(-c2nc(S)nc(N)c2C(=N)NN=Cc2ccc(Br)cc2)cc1 [Compound 4e, 4-amino-N'-[(4-bromophenyl)methylene]-6-[4-(dimethylamino)phenyl]-2-mercapto pyrimidine-5-carboximidohydrazide]	98.2%
CN(C)c1ccc(-c2nc(S)nc(N)c2C(=N)NN=Cc2ccc(Cl)cc2Cl)cc1 [Compound 4f, 4-amino-N'-[(2,4-dichlorophenyl)methylene]-6-[4-(dimethylamino)phenyl]-2-mercapto pyrimidine-5-carboximidohydrazide]	95.5%
N=C(NN=Cc1ccccc1)c1c(N)nc(S)nc1-c1ccc(Cl)cc1 [Compound 4g, 4-amino-6–(4-chlorophenyl)-2-mercapto-N'-[phenylmethylene]pyrimidine-5-carboximido hydrazide]	81.5%
N=C(NN=Cc1ccc(Cl)cc1)c1c(N)nc(S)nc1-c1ccc(Cl)cc1 [Compound 4h, 4-amino-6–(4-chlorophenyl)-N'-[(4-chlorophenyl)methylene]-2-mercapto pyrimidine-5-carboximidohydrazide]	87.3%
N=C(NN=Cc1ccc([N+](=O)[O-])cc1)c1c(N)nc(S)nc1-c1ccc(Cl)cc1 [Compound 4i, 4-amino-6–(4-chlorophenyl)-2-mercapto-N'-[(4-nitrophenyl)methylene] pyrimidine-5-carboximidohydrazide]	88.9%
COc1ccc(C=NNC(=N)c2c(N)nc(S)nc2-c2ccc(Cl)cc2)cc1 [Compound 4j, 4-amino-6–(4-chlorophenyl)-2-mercapto-N'-[(4-methoxyphenyl)methylene] pyrimidine-5-carboximidohydrazide]	96.8%
N=C(NN=Cc1ccc(Br)cc1)c1c(N)nc(S)nc1-c1ccc(Cl)cc1 [Compound 4k, 4-amino-N'-[(4-bromophenyl)methylene]-6–(4-chlorophenyl)-2-mercapto pyrimidine-5-carboximidohydrazide]	82.4%
N=C(NN=Cc1ccc(Cl)cc1Cl)c1c(N)nc(S)nc1-c1ccc(Cl)cc1 [Compound 4l, 4-amino-6–(4-chlorophenyl)-N'-[(2,4-dichlorophenyl)methylene]-2-mercapto pyrimidine-5-carboximidohydrazide]	77.3%
N=C(NN=Cc1ccccc1)c1c(N)nc(S)nc1-c1ccc(Cl)cc1Cl [Compound 4m, 4-Amino-6–(2,4-dichlorophenyl)-2-mercapto-N'-[phenylmethylene]pyrimidine-5-carboximidohydrazide]	99.1%
N=C(NN=Cc1ccc(Cl)cc1)c1c(N)nc(S)nc1-c1ccc(Cl)cc1Cl [Compound 4n, 4-Amino-N'-[(4-chlorophenyl)methylene]-6–(2,4-dichlorophenyl)-2-mercapto pyrimidine-5-carboximidohydrazide]	102%
N=C(NN=Cc1ccc([N+](=O)[O-])cc1)c1c(N)nc(S)nc1-c1ccc(Cl)cc1Cl [Compound 4o, 4-amino-6–(2,4-dichlorophenyl)-2-mercapto-N'-[(4-nitrophenyl)methylene] pyrimidine-5-carboximidohydrazide]	100%
COc1ccc(C=NNC(=N)c2c(N)nc(S)nc2-c2ccc(Cl)cc2Cl)cc1 [Compound 4p, 4-amino-6–(2,4-dichlorophenyl)-2-mercapto-N'-[(4-methoxyphenyl)methylene] pyrimidine-5-carboximidohydrazide]	104%
N=C(NN=Cc1ccc(Br)cc1)c1c(N)nc(S)nc1-c1ccc(Cl)cc1Cl [Compound 4q, 4-amino-N'-[(4-bromophenyl)methylene]-6–(2,4-dichlorophenyl)-2-mercapto pyrimidine-5-carboximidohydrazide]	104%
N=C(NN=Cc1ccc(Cl)cc1Cl)c1c(N)nc(S)nc1-c1ccc(Cl)cc1Cl [Compound 4r, 4-amino-6–(2,4-dichlorophenyl)-N'-[(2,4-dichlorophenyl)methylene]-2-mercapto pyrimidine-5-carboximidohydrazide]	107%
CN(C)c1ccc(-c2nc(S)nc(N)c2-c2ncn[nH]2)cc1 [Compound 5a, 4-Aamino-6-[4-(dimethylamino)phenyl]-5-(1H-1,2,4-triazol-5-yl)pyrimidine-2-thiol]	116%
Nc1nc(S)nc(-c2ccc(Cl)cc2)c1-c1ncn[nH]1 [Compound 5b, 4-Amino-6–(4-chlorophenyl)-5-(1H-1,2,4-triazol-5-yl)pyrimidine-2-thiol]	98.2%
Nc1nc(S)nc(-c2ccc(Cl)cc2Cl)c1-c1ncn[nH]1 [Compound 5c, 4-Amino-6–(2,4-dichlorophenyl)-5-(1H-1,2,4-triazol-5-yl)pyrimidine-2-thiol]	102%

Same assay, conditions: five-dose

Molecule	TGI
N#Cc1c(N)nc(S)nc1-c1ccc(Cl)cc1Cl [Compound 1c, 4-Amino-6–(2,4-dichlorophenyl)-2-mercaptopyrimidine-5-carbonitrile]	38.40 µM

Same assay, conditions: one dose 10^-5 M, 48 h

Molecule	% growth
3-Amino-4-[4-(dimethylamino)phenyl]-1H-pyrazolo[3,4-d]pyrimidine-6-thiol [Compound 3a]	101.18%
3-Amino-4–(2,4-dichlorophenyl)-1H-pyrazolo[3,4-d] pyrimidine-6-thiol [Compound 3c]	106.23%
3-Amino-4–(4-chlorophenyl)-1H-pyrazolo[3,4-d] pyrimidine-6-thiol [Compound 3b]	106.41%
4-Amino-6-[4-(dimethylamino)phenyl]-2-mercaptopyrimidine-5-carboximidohydrazide [Compound 2a]	101.58%
4-Amino-6–(2,4-dichlorophenyl)-2-mercaptopyrimidine-5-carboximidohydrazide [Compound 2c]	97.26%
4-Amino-6–(4-chlorophenyl)-2-mercaptopyrimidine-5-carboximidohydrazide [Compound 2b]	104.22%
